Data published in ChEMBL document CHEMBL1157768, “Pharmacophore modeling strategies for the development of novel nonsteroidal inhibitors of human aromatase (CYP19)” (Bioorg Med Chem Lett, 2010).

Target: T1, Aromatase (Homo sapiens, UniProt P11511)
T1 sequence (P11511 whole entry): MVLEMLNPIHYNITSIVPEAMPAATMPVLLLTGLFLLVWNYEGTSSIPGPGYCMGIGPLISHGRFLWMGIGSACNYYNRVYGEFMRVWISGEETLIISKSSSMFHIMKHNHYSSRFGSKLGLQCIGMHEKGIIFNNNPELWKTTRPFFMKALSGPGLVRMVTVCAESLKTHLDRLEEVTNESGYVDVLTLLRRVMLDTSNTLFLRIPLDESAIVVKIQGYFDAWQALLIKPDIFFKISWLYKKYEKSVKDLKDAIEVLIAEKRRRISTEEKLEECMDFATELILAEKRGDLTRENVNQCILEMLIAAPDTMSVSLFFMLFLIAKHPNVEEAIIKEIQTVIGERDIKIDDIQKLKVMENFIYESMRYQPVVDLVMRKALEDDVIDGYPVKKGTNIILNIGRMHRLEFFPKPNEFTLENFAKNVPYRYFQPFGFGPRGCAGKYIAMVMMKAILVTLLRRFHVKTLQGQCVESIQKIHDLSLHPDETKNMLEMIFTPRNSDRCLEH

Row | Structure (SMILES) | IC50 [nM]
1 | CCn1c(C)c(C(c2ccc(F)cc2)n2ccnc2)c2ccccc21 (centres undefined) | 32
2 | Clc1cccc(C(c2ccc3[nH]cnc3c2)n2ccnc2)c1 (centres undefined) [LIAROZOLE] | 5
3 | O=c1cc(-c2ccccc2)oc2c1ccc1cccc(O)c12 | 20
4 | O=c1c(O)c(-c2ccc(O)c(O)c2)oc2cc(O)cc(O)c12 [QUERCETIN] | 12
5 | O=C1/C(=C\c2cccnc2)C(c2ccc(OC(F)(F)F)cc2)n2cccc21 (centres undefined) | 40
6 | COc1ccc(C2=C(c3cc(OC)c(OC)c(OC)c3)COC2=O)cc1OC | 13.7
7 | O=c1c(-c2ccccc2)c(SCc2ccncc2)oc2cc(OCc3ccc(-c4ccccc4)cc3)ccc12 | 85
8 | O=C1OC[C@H](Cc2ccc(O)c(O)c2)[C@H]1Cc1ccc(O)c(O)c1 | 6
9 | CC(C)/C=C/Cc1c(O)cc(O)c2c1OC(c1ccc(O)cc1)CC2=O (centres undefined) | 200
10 | Cn1c(=O)sc2cc(C(c3ccccc3)n3ccnc3)ccc21 (centres undefined) | 13
11 | C=C1C(=O)O[C@@H]2[C@H]3C(C)=CC(=O)C3=C(C)CC[C@@H]12 [DEHYDROLEUCODIN] | 15
12 | O=C1c2ccc(Oc3ccccc3)cc2OC(SCc2cccnc2)C1c1ccccc1 (centres undefined) | 210
13 | Clc1ccc(COC(Cn2ccnc2)c2ccc(Cl)cc2Cl)c(Cl)c1 (centres undefined) [MICONAZOLE] | 600
14 | Fc1ccc(CCCn2ccnc2)cc1 | 310
15 | O=C1OC[C@H](Cc2ccccc2)[C@H]1Cc1cccc(O)c1 | 6
16 | CC1=CC[C@@H]2[C@H]1[C@H]1OC(=O)[C@@H](C)[C@@H]1CC[C@]2(C)O [11BETA,13-DIHYDRO-10-EPI-8-DEOXYCUMAM-BRIN B] | 2
17 | C=C1C(=O)O[C@@H]2[C@H]3C(C)=CC[C@H]3CCC[C@@H]12 [10-EPI-8-DEOXY-CUMAMBRIN B] | 7
18 | COc1ccc2c(c1)C(N)=C(CC1=CCNC=C1)C2=O | 3.5
19 | O=c1cc(-c2ccc(O)cc2)oc2cc(O)ccc12 | 2
20 | Fc1ccc(-n2cc(Cn3ccnc3)c3ccccc32)cc1 | 71.8
21 | O=[N+]([O-])c1ccc(CCn2ccnc2)cc1 | 160
22 | CC(Cc1ccc(O)c(O)c1)C(C)Cc1ccc(O)c(O)c1 (centres undefined) [NORDIHYDROGUAIARETIC ACID] | 11
23 | COc1cc(C(=O)N(C)C)cc(C=O)c1C(=O)c1c(C)cccc1O | 17.2
24 | COc1ccc(C2=C(c3ccc(OC)c(OC)c3)C(=O)OC2)cc1 | 6.9
25 | COc1ccc(C2=C(c3ccc(OC)c(OC)c3)C(=O)OC2)cc1OC | 1
26 | C=C1C(=O)O[C@H]2[C@H]1CCC(C)=C1C[C@H]3O[C@@]3(C)[C@@H]12 [LUDARTIN] | 55
27 | Cc1cccc(O)c1C(=O)c1c(O)cc(C(=O)O)cc1C=O | 17.2
28 | O=c1c(C(c2ccc([N+](=O)[O-])cc2)n2ccnc2)coc2ccccc12 (centres undefined) | 2.3
29 | Clc1ccc(C(c2cc3ccccc3o2)n2ccnc2)cc1 (centres undefined) | 8.8
